Variants at the floor of the assay are shown more often than the library holds them.
B1: TPR 5TU (parent)
chain: GGAUCUUCUCGAUCUAACAAAAAAGACAAAUCUGCCACAAAGCUUGAGAGCAUCUUCGGAUGCAGAGGCGGCAGCCUUCGGUGGCGCGAUAGCGCCAACGUUCUCAACUAUGACACGCAAAACGCGUGCUCCGUUGAAUGGAGUUUAUCAUG

Variants of: B1
Assay: polymerase ribozyme fitness, log enrichment relative to wild type (log ratio); higher = more active; in vitro selection for triplet polymerase activity
Procedure, shortened: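 Fitness compares each genotype's enrichment to that of the wild type on a logarithmic scale, averaging replicates with inverse-variance weights. The logarithm is base 2. Enrichment came from Illumina sequencing of input and output libraries after one triplicate round of in vitro selection, which included frozen incubation at −7 °C, of PCR-built, transcribed mutant libraries of each subunit of a heterodimeric triplet polymerase ribozyme. Only genotypes with ≥10 input reads and ≥1 read per output were kept.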

Variant	polymerase ribozyme fitness (log ratio)
C8A A41C C76U G84C A119C	≤ -4.2
U7G C76A C85G C95A A121U	≤ -4.2
U7A G42A C75G C85U	≤ -4.2
U7G U44A A49C U55A C96U A106G A122G G141U	≤ -4.2
U6G A37C C51G G74C A98U C103A C118A G128U U135C U146C G152A	≤ -4.2
U6G U55C C76A G83U A89U C95G C99U	≤ -4.2
U6C C10U C76G G92C	≤ -4.2
U7G U55A G94U A142C	≤ -4.2
U7C C35A G59U C93A A97C U101G	≤ -4.2
U6G C35U C75A A98G A121U	≤ -4.2
U7A A17C A41C U55A G58C G59A A91U A137C U145A	≤ -4.2
U7A C14G U15G G59U U78G G84A	≤ -4.2
U6A G25U	-1.78
U7A A17U A19C C38U G58U G86A G92C	≤ -4.2
U7A U53A U56A	≤ -4.2
U6C G48A A106G	-3.13
U6G A60C C85A C96U G124U	-4.11
U6G C14G A115U U148G	≤ -4.2
C8A A19U G136U U151G	≤ -4.2
C8A A19U A28C A52G A64U G84A C87U C95G G136C	≤ -4.2
U7C C10U C76A U104C	≤ -4.2

Variant	polymerase ribozyme fitness (log ratio)
U7A A26C G74A U127A	≤ -4.2
U6A G68C C99G U102C C105A A106U C132G G143A	≤ -4.2
C8A A37U G59U C87G G136U G141A	≤ -4.2
U7G C18U C27A C36A C76G G92A U134C	≤ -4.2
U7A A49G G50A U53A G58A G83C U144G	≤ -4.2
U7G U53G C87G A89G	≤ -4.2
U7A U9A A98G A121G	≤ -4.2
U7A A21U G25U U44A A49C C54A C63G C85U G86U C99G	≤ -4.2
U6C U77G C116U U130G	≤ -4.2
U7A A22U A40G U53C C57U A73C G83U A120U	≤ -4.2
U7C A24G U31A C43U A52C U55C C75G C85A U90G G133A	≤ -4.2
C8A C27A C57G G92A	≤ -4.2
U7G C32U C54G C96U	≤ -4.2
C8A C14A A21C A29G A47C A97G A106C U127G A137C	≤ -4.2
U7A G25A G50U G84U	≤ -4.2
U6G G46A U56C C76G G81C A91C A106G A137U U144C U151A	≤ -4.2
U7A C38U C93U A137G U148C	≤ -4.2
C8A C27U A49C U77G G94A C125A	≤ -4.2
U7G C35U G42U G84A	≤ -4.2
U7G U9C A20C U45C A73G U77C G92A C95A U102C C116G	≤ -4.2
U6C C8U G83C C116A A121C	≤ -4.2

Variant	polymerase ribozyme fitness (log ratio)
U7C G86U	-3.7
U6G U7C A21U C75U C93G A98U	≤ -4.2
C8A C10U U33A G81U C87A C103G A147C	≤ -4.2
U6C C51A G68A G84A	≤ -4.2
C8A A30C G67C G68A G88A C93A U135C G141C	≤ -4.2
U6C A60U G86A	-3.49
U6A U90G C95U U109G A137C	≤ -4.2
U7A G94A	-3.07
U6A G48A G62A U82C G126A A142G G152A	≤ -4.2
U7G A30U C51U G62A A91U G92U U111G	≤ -4.2
U7A A29U C35U A66C U82G A113U	-3.86
C8A A29G C32U C35A A89C A150U	≤ -4.2
U7G A24G A26U A52C G59C A60G C93U C129A	≤ -4.2
U6G C93U A122U G133C G140A	≤ -4.2
U7G A40U G94U G141U	≤ -4.2
C8A A17G A60U U82G G83A C149A	≤ -4.2
U6A C57G C105U	0.464
U6G A22C C36A C54U A64C C87A U148A	≤ -4.2
U6G G34C A52U A89G C93A A107U A115U A150C	≤ -4.2
U7G A12C U61A C93U G124C	≤ -4.2
U6A U13A C32U C51U G67U G133U G140U	≤ -4.2

Variant	polymerase ribozyme fitness (log ratio)
U7G U9A A16G A20G A21U U31G A52C U56A G86U U134C	≤ -4.2
U7G A49G C93G A97U C108U	≤ -4.2
C8A A17G U44A A66U U77A A107C U139G	≤ -4.2
U7A C75A C116U	≤ -4.2
U6G A52G C72A G124C U134G	≤ -4.2
U7G C18G C27G A28G A37C G59U G92C U101G	≤ -4.2
C8A A47G A49C G59C A60U G84A C125G	≤ -4.2
C8A C54G	≤ -4.2
U7G C75A G84A G94U A106U A120C	≤ -4.2
U6G A30C A89G C103G U127G	≤ -4.2
U7C A30C U31A U45A C125U U135C	≤ -4.2
C8A A23U C57A C76G C95U C96A G128A	≤ -4.2
C8A A24U C35U U45A A98G C99G	≤ -4.2
U6G A120G	-0.399
U7G G25C A60G C93U C123U	≤ -4.2
U6G C85U	-0.35
U6G C8A C10G C85A	≤ -4.2
U6C A16C U56A A66G U145G	≤ -4.2
U7C A24G G94A	≤ -4.2
U6A C35A U104C	-3.88

Source: the RNAGym collection of RNA variant scans (doi:10.1073/pnas.2313332121)
